The campaign covered roughly 310,000 compounds. About 14,000 (4.5%) showed an effect of 50% or more. Effects have a minus sign here. The list shows a part of the results.
target: human ether-à-go-go-related gene (hERG) potassium channel (human, UniProt Q12809); experiment: primary screen, population patch clamp on CHO cells stably expressing hERG
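Further: peak tail current of the secondary pulse compared with the same well before compound.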

Sequence of human ether-à-go-go-related gene (hERG) potassium channel (Q12809 whole entry, looked up): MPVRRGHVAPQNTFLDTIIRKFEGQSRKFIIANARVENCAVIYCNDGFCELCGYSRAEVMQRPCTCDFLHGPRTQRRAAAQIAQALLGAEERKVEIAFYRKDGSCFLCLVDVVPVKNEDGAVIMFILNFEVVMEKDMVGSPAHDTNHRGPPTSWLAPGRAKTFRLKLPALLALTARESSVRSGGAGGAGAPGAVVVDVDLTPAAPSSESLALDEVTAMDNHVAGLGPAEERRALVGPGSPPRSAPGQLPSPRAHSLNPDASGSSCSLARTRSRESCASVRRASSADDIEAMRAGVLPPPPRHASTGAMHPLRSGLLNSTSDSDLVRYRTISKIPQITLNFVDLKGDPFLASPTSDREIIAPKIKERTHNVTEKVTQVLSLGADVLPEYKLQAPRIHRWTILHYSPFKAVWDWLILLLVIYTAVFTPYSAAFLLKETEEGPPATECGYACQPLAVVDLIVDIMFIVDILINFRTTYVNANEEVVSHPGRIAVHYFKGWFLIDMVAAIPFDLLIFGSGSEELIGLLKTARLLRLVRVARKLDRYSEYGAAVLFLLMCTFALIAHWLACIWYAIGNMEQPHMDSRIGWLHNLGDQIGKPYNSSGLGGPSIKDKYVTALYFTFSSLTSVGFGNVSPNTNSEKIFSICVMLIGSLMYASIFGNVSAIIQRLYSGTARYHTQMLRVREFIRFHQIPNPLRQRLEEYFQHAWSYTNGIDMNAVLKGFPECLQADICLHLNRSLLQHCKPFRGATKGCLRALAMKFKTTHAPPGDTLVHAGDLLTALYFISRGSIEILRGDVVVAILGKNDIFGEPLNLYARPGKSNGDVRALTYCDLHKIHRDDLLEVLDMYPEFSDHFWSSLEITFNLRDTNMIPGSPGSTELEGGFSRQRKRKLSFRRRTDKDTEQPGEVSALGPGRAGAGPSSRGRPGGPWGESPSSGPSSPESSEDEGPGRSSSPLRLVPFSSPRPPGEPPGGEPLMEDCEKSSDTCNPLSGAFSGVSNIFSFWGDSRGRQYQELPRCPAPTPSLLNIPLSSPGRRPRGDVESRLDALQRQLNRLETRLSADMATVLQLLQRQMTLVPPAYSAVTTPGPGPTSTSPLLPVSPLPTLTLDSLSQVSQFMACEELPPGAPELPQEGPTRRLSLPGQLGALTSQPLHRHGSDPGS

| SMILES | hERG current change (%, negative = inhibition) at 10uM [%] |
| --- | --- |
| CCCC(C)CO (stereo not shown) | 18.3 |
| CC1Cc2cc(S(=O)(=O)NCc3ccccc3)ccc2N1C(=O)C1CC1 (stereo not shown) | 0.505 |
| COc1cc(C(c2c(C)n(C)n(-c3ccccc3)c2=O)c2c(C)n(C)n(-c3ccccc3)c2=O)cc(Br)c1O | 13.7 |
| COc1ccc(/C=C/C(=O)NC(=S)NNC(=O)c2ccco2)cc1OC | 10.1 |
| CCc1cccc(Nc2cc(C)nc3ncnn23)c1 | 1.12 |
| CCOC(=O)C1C2C=CC3(CN(Cc4ccccc4)C(=O)C13)O2 (stereo not shown) | 13.7 |
| Cc1nc(SCC(=O)NCc2ccco2)c2c3c(sc2n1)CCCC3 | -3.83 |
| Cn1nnc(NC(=O)c2ccc(C(C)(C)C)cc2)n1 | 3.02 |
| c1ccc(CSc2nnc3ccc(-c4ccncc4)nn23)cc1 | -58.3 |
| Cc1nc(C)n(C)c(=O)c1-c1ccccc1 | -10.7 |
| O=C(O)C1C2CCC(O2)C1C(=O)Nc1ccc(O)cc1 (stereo not shown) | 13.8 |
| CC(C)(CO)CNC(=O)c1ccc2nc(Cc3cccc(Cl)c3)oc2c1 | -4.83 |
| CCOc1ccc(C2SCC(=O)Nc3c2c(=O)[nH]n3C2CCCCCC2)cc1 (stereo not shown) | 7.29 |
| Cc1ccc(NC(=S)NC2CCCC2)cc1C | 14.8 |
| COc1cccc(NC(=O)COC(=O)c2c(NC(C)=O)sc(C)c2C)c1 | 12 |
| Cc1ccc(CNS(=O)(=O)c2cc(F)ccc2CN2C(=O)c3cccnc3C2=O)o1 | -9.97 |
| CCOC(=O)N/N=C\c1ccc(OC/C=C/c2ccccc2)c(OC)c1 | 1.18 |
| O=C(COc1nsnc1N1CCOCC1)Nc1ccc(Cl)cc1 | -6.56 |
| CN1C(=S)SC(/[N+]([O-])=C/c2ccc(Cl)cc2)C1(C)C (stereo not shown) | 4.01 |
| Fc1cccc(/C=N/Nc2nc3ccccc3[nH]2)c1 | 18.1 |
| Nc1ncnc2c1ccn2[C@@H]1O[C@H](CO)[C@@H](O)[C@H]1O | -1.04 |
| Cc1ccccc1NC(=O)COC(=O)c1ccccc1SCC(=O)N1CCCC1 | -0.0223 |
| Cn1c(=O)c2c(nc(N/N=C/c3cccs3)n2Cc2ccccc2)n(C)c1=O | 9.85 |

| SMILES | hERG current change (%, negative = inhibition) at 10uM [%] |
| --- | --- |
| Cc1nnc(NC(=O)c2ccc(S(=O)(=O)N3CCc4ccccc4C3)cc2)o1 | 8.81 |
| O=C(N/N=C/c1ccc(OCc2ccccc2)cc1)c1cc[n+](Cc2ccccc2)cc1.[Cl-] | -33.1 |
| CCOC(=O)c1ccc(NC(=O)N2CCCCC2)cc1 | 3.33 |
| CC(C)C(NC(=O)CN1C(=O)c2ccccc2S1(=O)=O)C(C)C | -1.61 |
| O=C(Oc1ccc(OC(=O)c2ccco2)c(S(=O)(=O)c2ccc(Cl)cc2)c1)c1ccco1 | 13.1 |
| Cc1cc2nc3n(c2cc1C)CC1CC(C(=O)NCc2cccc(Br)c2)N(C)C31 (stereo not shown) | -72.5 |
| Cc1ccc(-c2nc3ccccc3c(=O)n2Cc2ccccc2)cc1 | -16.9 |
| CCCCC(=O)N/N=C/c1cc([N+](=O)[O-])ccc1N1CCOCC1 | -37.1 |
| COc1ccc(CN(Cc2ccccn2)C(=O)CN2C(=O)COc3ccccc32)cc1 | -14.7 |
| O=C(NCCc1cccs1)c1ccc(Cl)cc1 | -3.77 |
| COC(=O)c1c(-c2ccc(C)cc2)csc1NC(=O)c1c(-c2ccccc2)noc1C | 12.9 |
| Cn1ccnc1/C(=N\NC(=O)c1ccc(O)cc1)c1cccc([N+](=O)[O-])c1 | -22.7 |
| COC(=O)C(NC(=O)C(NC(=O)C1CCC(C)CC1)C(C)C)C(C)C (stereo not shown) | 4.34 |
| Cc1noc(C(=O)N2CC3(C)CC2CC(C)(C)C3)c1Cl (stereo not shown) | -22.3 |
| Cn1c(SCC(=O)NC(=O)Nc2ccccc2)nnc1-c1ccncc1 | -13.5 |
| NCC(=O)CCC(=O)O | 13.3 |
| CN1CCN(c2nc3c(c(=O)n(C)c(=O)n3C)n2Cc2ccc(Cl)cc2)CC1 | -39.5 |
| CCC(=NCCc1ccccc1)c1c(O)n(C)c(=O)n(C)c1=O | -2.35 |
| COc1ccc(NC(=O)CSc2nccn2Cc2ccco2)cc1OC | 11.3 |
| Clc1ccc(-c2cc(CN3CCCCC3)no2)cc1Cl | 6.49 |
| O=C(/C=C/c1ccccc1)NCC(=O)N/N=C/c1ccco1 | 5.53 |
| Cn1c(SCc2nc(-c3ccccc3)no2)nnc1-c1ccco1 | -18.4 |
| CC(C)N(C(=O)COC(=O)c1cncc(Br)c1)C(C)C | 17.2 |

| SMILES | hERG current change (%, negative = inhibition) at 10uM [%] |
| --- | --- |
| COC(=O)c1ccc2c(C)c(C(C)(C)O)[nH]c2c1 | 10.3 |
| CNc1ncc(C(=O)C(C)(C)C)s1 | 8.03 |
| CC(CN1CCN(c2ccccc2)CC1)c1ccccc1 (stereo not shown) | -25.5 |
| C/C(=N\NC(=O)c1ccc2c(c1)OCO2)c1ccco1 | 24.4 |
| Cc1[nH]c2ccccc2c1C(C#N)(C#N)C1C(=O)c2ccccc2C1=O | 2.55 |
| CCOC(=O)c1[nH]c2ccccc2c1NC(=O)NC(C)C | 14.5 |
| Cc1ccc(S(=O)(=O)N2CCCCC2)cc1C(=O)N1CCCC1 | 7.66 |
| COc1ccccc1Oc1ccc(S(=O)(=O)N2CCCCC2)cc1NC(=O)CCNC(C)=O | -55.1 |
| COc1ccc(NC(=O)CNc2ccccc2N2CCCC2=O)cc1S(=O)(=O)N1CCOCC1 | 0.849 |
| COC(=O)C1CCN(C(=O)COC(=O)CCc2nc3ccccc3c(=O)[nH]2)CC1 | 3.65 |
| Cc1ccc2[nH]c(=O)c(CN(CCO)C(=O)N(C)C)cc2c1 | 5.5 |
| COCCCn1c(Cc2csc(Nc3ccccc3)n2)nnc1SCC(N)=O | 14.8 |
| CCN(CC)CCn1c(-c2ccccc2)nc(=S)c2c1CC(C)(C)OC2 | 2.59 |
| O=C(c1sc2ccccc2c1Cl)N1CCN(c2ncccn2)CC1 | -9.78 |
| Cc1cccc(Cn2c(=O)oc3ccc(C)cc32)c1 | 2.47 |
| CCC(C)NC(=O)C1CCC(CNS(=O)(=O)c2ccccc2)CC1 (stereo not shown) | 14.4 |
| CCC(C#CCN1CCOCC1)(CC)OCCC#N | 6.36 |
| CC(=O)c1c(C)[nH]c(C(=O)Nc2ccc(C)c(C)c2)c1C | 20.5 |
| Cc1noc(NC(=O)c2ccc(Cl)c(Cl)c2)c1Cl | 10.1 |
| CCCn1c(N)c(CC)c(=O)[nH]c1=O | 30 |
| Cl.O=C1CC(N2CCN(Cc3ccccc3)CC2)C(=O)N1c1ccc2c(c1)OCCO2 (stereo not shown) | 5.38 |
| O=c1c(C=NCc2cccnc2)c(C(F)(F)F)[nH]n1-c1nc2ccccc2s1 | 9.04 |
| O=C(c1ccc2c(c1)OCO2)N(Cc1cccs1)C1(C(=O)NC2CCCCC2)CCCCC1 | -19.4 |

| SMILES | hERG current change (%, negative = inhibition) at 10uM [%] |
| --- | --- |
| Cc1ccc(-n2[nH]c(C)c(C=Nc3ccc(C)cn3)c2=O)cc1 | 1.75 |
| O=C(O)c1cc2cc(Cl)cc(Cl)c2oc1=O | 9.15 |
| C[N+]1(CCC(C(N)=O)(c2ccccc2)c2ccccc2)CCCCC1.[Br-] | 10.7 |
| O=c1[nH]c(CN(CCO)CCO)nc2c1C1(CCCCC1)Cc1ccccc1-2 | -10.9 |
| C=CCn1c(CCc2ccccc2)nnc1SCC(N)=O | -5.61 |
| O=C(CSCc1ccccc1F)NCc1ccccc1 | 17.4 |
| CCN(CC(=O)Nc1ccc(NC(C)=O)cc1)C(=O)/C=C/c1ccc2c(c1)OCO2 | 0.823 |
| CCCN1CCC[C@@H](c2cccc(O)c2)C1.Cl | -43.1 |
| CN(C)C1(CNC(=O)Nc2ccccc2)CCCCC1 | -3.27 |
| COc1cccc(C(=O)OCC(=O)NC(=O)NC2CCCC2)c1O | 19.4 |
| Nc1cc(N)cc(C(=O)OCC(=O)Nc2cc(S(=O)(=O)N3CCCCC3)ccc2Cl)c1 | -2.12 |
| COc1cc2c(cc1OC)C1(Nc3c-2c(C)nn3-c2ccccc2)C(=O)Nc2ccccc21 (stereo not shown) | 3.78 |
| Cc1ccc(C(c2c(C)[nH][nH]c2=O)c2c(C)[nH][nH]c2=O)cc1 | 16.1 |
| CCOc1ccc(N2CC(C(=O)Nc3ccncc3)CC2=O)cc1 (stereo not shown) | -23.1 |
| CCN(CC(=O)NCc1ccc(Cl)cc1)S(=O)(=O)c1ccc(NC(C)=O)cc1 | -39.7 |
| O=c1c2cccnc2n(-c2ccccc2)n1Cc1c(Cl)cccc1Cl | 19.9 |
| CCOC(=O)c1cc(NC(=O)COC)ccc1O | 9.32 |
| COCCn1c(SCC(=O)Nc2cc(Cl)ccc2OC)nc2c(c1=O)SC(C)C2 (stereo not shown) | -40.9 |
| Fc1ccc(N2CCN(C(=S)NCC3CCCO3)CC2)cc1 (stereo not shown) | 9.58 |
| O=C(Cc1ccc([N+](=O)[O-])cc1)Nc1ccc2c(c1)C(=O)NC2=O | -17.1 |
| COc1ccc(C(C(=O)NCC2CCCO2)N(C(=O)Cn2nnc3ccccc32)c2ccccc2C(C)=O)cc1OC (stereo not shown) | -43.5 |
| CC1(C)Cc2c(sc3nn[nH]c(=O)c23)CO1 | 7.54 |

— article PMC4336329 (PLoS ONE, 2015)
